# Experimental data from PubChem BioAssay AID463173 (ICCB-Longwood Screening Facility, Harvard Medical School, 2010).
# About 1,700 (3.3%) of roughly 52,000 compounds were called active. Cut-off read from the data, not from the text of the source: active = survival mostly below about 52% (no sharp cut-off); inactive = mostly above about 56%. This is one part of the list.
# Tested on: Wild type
# Assay: S. aureus survival, RN4220 and DeltatarO strains – OD600, teichoic acid synthesis inhibitors, primary screen (AID 463173)
# Details: S. aureus RN4220 wild type/DeltatarO growth, OD600, 18 h, stronger effect = lower value, screened at 18.75 µg/mL (by protocol)
row,SMILES,survival
1,CC(C)(C)Sc1ccc(SC#N)s1,active: 23%
2,CSc1ncc(Cl)c(C(=O)Nc2nc3ccc(F)cc3s2)n1,inactive: 92%
3,COc1cccc(NC(=O)CN(Cc2ccccc2)S(=O)(=O)c2ccc3nc(C)sc3c2)c1,inactive: 118%
4,Cc1nn(CCCC(=O)NCc2cccc(F)c2)c(=O)c2nn(-c3ccccc3)c(C)c12,inactive: 84%
5,COc1ccc(OC)c(-c2nc(C(N)=O)c3c(n2)n(-c2ccc4c(c2)OCO4)c(=O)n3C)c1,inactive: 71%
6,CCOc1ccc(CNCc2c(C(=O)O)c(C)n(Cc3ccc(F)cc3Cl)c2C)cc1,inactive: 144%
7,C#CCOc1nc(OCC#C)nc(N(c2ccccc2)c2ccccc2)n1,inactive: 110%
8,CCN1CCN(C(=O)c2ccc3c(c2)N(Cc2ccccc2)C(=O)c2ccccc2S3=O)CC1 (centres undefined),inactive: 92%
9,CN1C(=O)SC(Nc2ccccc2)C1=O (centres undefined),inactive: 95%
10,CN(C)c1ccc(-c2nnc(-c3ccc(S(=O)(=O)C(F)F)cc3)o2)cc1,inactive: 103%
11,CCCCc1nn2c(=O)cc(COC(=O)c3cccc(NC(=O)c4cccc(C)c4)c3)nc2s1,inactive: 80%
12,CCOC(=O)c1c(S(=O)(=O)NCC(=O)Nc2ccc(Cl)c(C(F)(F)F)c2)c(C)n(C)c1C,inactive: 83%
13,Cc1ccc(CN2CCCn3nc(C(=O)NCc4ccccc4Cl)cc3C2=O)cc1,inactive: 69%
14,Cc1ccc(NC(=O)CN(C)S(=O)(=O)c2ccc3c(c2)CCC(=O)N3)c(C)c1,inactive: 76%
15,COc1ccccc1C(=O)c1c(N)c(-c2nc(-c3ccccc3)cs2)c2ccccn12,inactive: 105%
16,CCCCN(CC)C(=O)CCn1c(=O)c2cccn2c2cccnc21,inactive: 81%
17,Cc1ccc(NC(=O)Cn2nc(-c3ccc(F)cc3)c3cnc4ccc(C)cc4c32)cc1,inactive: 130%
18,CCCN1CCN(c2ncc3c(n2)CCN(Cc2ccc(OC)c(OC)c2OC)C3)CC1,inactive: 59%
19,COc1ccccc1-c1noc(-c2ccc(N(C)Cc3ccccc3)c([N+](=O)[O-])c2)n1,inactive: 79%
20,CCCCNC(=O)CN1C(=O)CSc2ccc(S(=O)(=O)N3CCC(C)CC3)cc21,inactive: 92%
21,CC(=O)c1cccc(N(C(=O)Cn2nnc3ccccc32)C(C(=O)NCc2ccccc2)c2ccc(F)cc2)c1 (centres undefined),inactive: 106%
22,O=C(NCc1cccc(Cl)c1)c1cnc(N2CCCCC2)c2ccccc12,inactive: 89%
23,COc1ccc(CCNC(=O)Cn2c(=O)c3sccc3n(CC(=O)Nc3cccc(C(F)(F)F)c3)c2=O)cc1OC,inactive: 72%

row,SMILES,survival
1,COc1ccc(Cl)cc1NC(=O)C(OC)c1ccccc1 (centres undefined),inactive: 109%
2,Cc1cccc(N2CCN(c3ncnc4onc(C)c34)CC2)c1C,inactive: 84%
3,COC(=O)c1cccc(Nc2c(-c3ccc(SC)cc3)nc3nc[nH]n23)c1,inactive: 82%
4,CCc1ccc(C2N=C(N)Nc3nc4ccccc4n32)cc1 (centres undefined),inactive: 92%
5,Cc1ccc(-n2ncc(C(=O)NCCc3ccsc3)c2C2CCN(C(=O)OC(C)(C)C)CC2)c(C)c1,inactive: 73%
6,COc1ccc(Cl)cc1NC(=O)CN(c1cccc(C)c1C)S(C)(=O)=O,inactive: 91%
7,O=C(CCCCCn1c(=O)[nH]c2ccccc2c1=O)NCCc1ccccc1,inactive: 92%
8,Cc1cccc(S(=O)(=O)c2cn(Cc3ccc(F)cc3)c3cc(N4CCCCC4)c(F)cc3c2=O)c1,active: -4%
9,Cc1ccc2c(c1)cc(CN(Cc1ccco1)C(=O)NCc1ccccc1)c1nnnn12,inactive: 102%
10,COc1cc(C(=O)NN)ccc1-c1ccc(C(=O)NN)cc1,inactive: 111%
11,O=C(CSc1nc2c([nH]c3ccccc32)c(=O)n1-c1ccc(Cl)cc1)NCc1ccccc1,inactive: 60%
12,CCc1ccc(CNC(=O)CN2C(=O)CSc3ccc(S(=O)(=O)N4CCOCC4)cc32)cc1,inactive: 82%
13,COc1cccc(C(=O)N(Cc2ccc(N(C)C)cc2)Cc2ccco2)c1,inactive: 86%
14,CC1=C(C(=O)Nc2cc(Cl)ccc2C)C(c2ccccc2F)n2ncnc2N1 (centres undefined),inactive: 78%
15,CN1CCN(C(CNC(=O)C(=O)Nc2ccccc2C#N)c2ccc3c(c2)OCO3)CC1 (centres undefined),inactive: 75%
16,CCc1ccccc1NC(=O)c1cc(-c2ccc(OC)cc2)on1,inactive: 100%
17,O=c1c(Cl)c(NCc2ccco2)cnn1Cc1ccccc1,inactive: 115%
18,COc1ccc(C(=O)Cn2nnc(-c3ccccc3)n2)cc1,inactive: 109%
19,CCc1ccc(S(=O)(=O)NCc2cccn2Cc2cccc(C)c2)cc1,inactive: 71%
20,COc1cc(C(=O)Nc2sc3c(c2C(N)=O)CCC(C)C3)cc(OC)c1OC (centres undefined),inactive: 76%
21,CCn1c(=O)c(=O)n(CC)c2cc(N3CCCCC3)c(NC(=O)c3ccc(OC)c(OC)c3)cc21,inactive: 84%
22,Cc1ccc2sc(N(CCCN(C)C)C(=O)c3ccco3)nc2c1C,inactive: 121%
23,COc1ccc(CCNC(=O)CSc2cc(=O)n(C)c3ccccc23)cc1OC,inactive: 75%

row,SMILES,survival
1,COC(=O)c1ccc(NC(=O)CC2C(=O)N(c3cccc(F)c3)C(=O)N2CC(C)C)cc1 (centres undefined),inactive: 77%
2,CCCNC(=O)C1CCC(Cn2c(=O)c3sccc3n(CC(=O)N(CC)CC)c2=O)CC1 (centres undefined),inactive: 128%
3,COc1cccc(/C=N/NC(=O)c2ccccc2O)c1,inactive: 100%
4,COc1ccc(NC(=O)Cn2nnnc2-c2ccccc2F)c(C)c1,inactive: 95%
5,Cc1ccc(-n2nc(C(=O)N3CCCCC3)c(=O)n(C)c2=O)cc1,inactive: 64%
6,CCCN(CCC)CCNC(=O)CS(=O)Cc1nc(-c2ccc(OC)c(OC)c2)oc1C (centres undefined),inactive: 91%
7,CC(=O)Nc1ccc(S(=O)(=O)N2CCC(C)CC2)cc1,inactive: 112%
8,COc1ccc(CN2C(=O)N(c3cccc(C)c3)C(=O)C2CC(=O)Nc2ccc(F)cc2)cc1OC (centres undefined),inactive: 73%
9,COc1ccc(-n2c(=O)c3ccc(C(=O)NCc4ccc(C)cc4)cc3n(CC(=O)Nc3cccc(F)c3)c2=O)cc1,inactive: 68%
10,Cc1ccc(CNC(=O)c2cc3cc(C)ccc3n2C)cc1,inactive: 89%
11,CNc1ccc(-c2nc(-c3ccccn3)no2)cc1[N+](=O)[O-],inactive: 89%
12,COc1cccc(C(=O)Nc2nc3c(s2)CCCC3)c1,inactive: 116%
13,CN(Cc1ccccc1)C(=O)C(=O)Nc1ccc2nc3n(c(=O)c2c1)CCCCC3,inactive: 92%
14,CN(C(=O)C1CC1)c1nnc(-c2ccc(F)cc2)s1,inactive: 111%
15,CCOc1ccc(C2c3[nH]c4ccccc4c3CCN2C(=O)CSc2ccccc2)cc1 (centres undefined),inactive: 152%
16,COCCCNC(=O)Cn1c(=O)n(-c2ccccc2)c(=O)c2c1c1cc(OC)ccc1n2C,inactive: 55%
17,CCOc1cc(CNCCSc2nnnn2C)ccc1OCc1ccc(Cl)cc1Cl,active: -5%
18,Cc1ccc(NC(=O)CN2C(=O)COc3ccc(S(=O)(=O)N4CCCCC4)cc32)cc1Cl,inactive: 93%
19,CCOC(=O)c1cc(NC(=O)c2ccc(C)cc2)c(=O)n2c1oc1ccccc12,inactive: 87%
20,CC(=O)Nc1ccc2nc(SCCOc3ccc(C)cc3)sc2c1,inactive: 95%
21,COc1ccc(Cn2c(SCc3ccc(C(=O)NC4CCCCC4)cc3)nc3cccnc32)cc1,inactive: 124%
22,COc1ccc(Nc2ncnc3scc(-c4ccc(F)cc4)c23)cc1,inactive: 79%
23,CN1CCN(C(=O)C2C3C=CC(C3)C2C(=O)O)CC1 (centres undefined),inactive: 104%

row,SMILES,survival
1,COc1ccccc1-c1cc(C(F)(F)F)nc(S(=O)(=O)CCCC(=O)Nc2ccccc2F)n1,inactive: 85%
2,CCc1c(CN2CCN(c3ccc(F)cc3)CC2)csc1C,inactive: 75%
3,COc1ccc(NC(=O)c2sc3nc(C)c(C(=O)Nc4ccc(C)cc4C)c(-c4sccc4C)c3c2N)cc1,inactive: 87%
4,O=C(COc1ccc(Cl)cc1)NCCc1csc(-c2ccc(C(F)(F)F)cc2)n1,inactive: 76%
5,COCCNc1nc2c(S(=O)(=O)c3ccccc3)nnn2c2ccc(Cl)cc12,inactive: 81%
6,COc1cc2c(cc1NC(=O)COc1cc(C)cc(C)c1)oc1ccccc12,inactive: 75%
7,COc1ccc(C)cc1Nc1nc2c(S(=O)(=O)c3cc(C)ccc3C)nnn2c2ccsc12,inactive: 89%
8,Cc1ccc(CN2CCC(CNC(=O)Nc3ccccc3F)CC2)cc1,inactive: 118%
9,CN(C)c1ccc(C(=O)Nc2sc(Nc3ccccc3)nc2C(N)=O)cc1,inactive: 88%
10,Cc1oc2c(cc(NS(=O)(=O)c3ccc(Br)cc3)c3ccccc32)c1C(=O)OCc1ccccc1,inactive: 72%
11,Cc1ccc(C(=O)COC(=O)CCc2nc3ccccc3[nH]c2=O)cc1C,inactive: 109%
12,COc1ccc(Cn2c(CCC(=O)Nc3ccc(Br)c(C)c3)nc3cccnc32)cc1,inactive: 64%
13,CCCCCn1c(=O)[nH]c2cc(C(=O)N3CCN(c4ccc(OC)cc4)CC3)ccc2c1=O,inactive: 142%
14,CCOC(=O)C1CCC(CN(Cc2ccc(OC)cc2)S(=O)(=O)c2ccc(C)cc2)CC1 (centres undefined),inactive: 71%
15,NNc1ncccc1C(=O)O,inactive: 95%
16,COc1cc(OC)c(C(=O)NCc2nc(-c3ccccc3)no2)cc1OC,inactive: 81%
17,O=C(Nc1cc(Cl)cc(Cl)c1)c1ccc(F)c(S(=O)(=O)N2CCCC2)c1,inactive: 71%
18,CCCC(=O)Oc1c(Sc2ccc(C)cc2)c(C)nn1-c1ccccc1,inactive: 72%
19,CCc1ccc(CN(Cc2ccco2)c2cnc(S(C)(=O)=O)nc2C(=O)Nc2ccc(C)c(Cl)c2)cc1,inactive: 86%
20,CC(=O)Nc1ccc(S(=O)(=O)N2CCC(N3CCN(Cc4ccc(C)cc4)C(=O)C3=O)CC2)cc1,inactive: 92%
